Data reported in PubChem BioAssay AID1346428 (National Center for Advancing Translational Sciences (NCATS), 2018).
Screen size: about 48,000 compounds; about 1,200 (2.5%) were called active. Another 2% or so got no clear call; they are omitted.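 How the source made its calls: active means activation of at least 60% and not above a set upper limit (about 1 call in 100 departs from these limits); inconclusive means activation of 40% to 60%, or above that upper limit; inactive means activation under 40%.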 The list shows a part of the results.
Further: 0% is about no effect.

What follows are molecules tested against Probable G-protein coupled receptor 32 (Homo sapiens) (UniProt O75388) (assay: qHTS for Agonists of Human Resolvin D1 Receptor DRV1). Details: CHO-K1 GPR32 beta-arrestin PathHunter luminescence, 90 min; at 76.9 µM; hits give high values; zero percent set by DMSO-only wells.
UniProt O75388, sequence (O75388 whole entry, looked up, the tested form may be a part): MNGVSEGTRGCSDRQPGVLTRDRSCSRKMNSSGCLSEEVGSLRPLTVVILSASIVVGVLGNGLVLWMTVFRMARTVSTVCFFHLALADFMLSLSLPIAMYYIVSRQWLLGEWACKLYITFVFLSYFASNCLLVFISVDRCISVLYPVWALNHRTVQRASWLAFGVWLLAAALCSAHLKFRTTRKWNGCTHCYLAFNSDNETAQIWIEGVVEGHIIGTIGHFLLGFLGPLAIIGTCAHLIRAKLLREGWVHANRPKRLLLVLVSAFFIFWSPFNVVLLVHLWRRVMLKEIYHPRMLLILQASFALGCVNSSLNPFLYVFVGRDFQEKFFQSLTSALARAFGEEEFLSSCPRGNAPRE
Method in brief: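 Agonism was scored as beta-arrestin recruitment to ProLink-fused GPR32 in stably transfected CHO-K1 cells, giving a chemiluminescent beta-Gal signal; compounds were incubated 90 min at 37 °C.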
In the case of `COc1cccc(CNC(=O)c2ccc(-n3c(C)cc4c3CCCC4)cc2)c1`, the activation was inactive: -4.85%.
With `Cc1noc(-c2ccccc2OCC(=O)Nc2ccccc2[N+](=O)[O-])n1` the activation was inactive: 47.5%.
`CCOc1ccccc1N1CC(c2nc3ccccc3n2CCCOc2ccc(OC)cc2)CC1=O` (centres undefined) was tested, and the activation was inactive: 1.21%.
For `COc1ccc(CNC(=O)c2sc3nc[nH]c(=O)c3c2C)cc1`, the activation was inactive: -5.74%.
For `CC(C)OCCCN1C(=O)c2[nH]nc(-c3ccccc3O)c2C1c1ccccc1F` (centres undefined), the activation was inactive: -1.9%.
`CCN1CCSc2ccc(C(=O)NCc3cccc(Br)c3)cc21` was tested, and the activation was inactive: -41%.
`CCOc1ccc(NC(=O)CSc2c3c(nc4ccccc24)CCCC3)cc1` was tested, and the activation was inactive: -12%.
In the case of `CCCCOc1ccccc1C(=O)N(Cc1sccc1C)C1CCS(=O)(=O)C1` (centres undefined), the activation was inactive: -26.9%.
For `COc1ccc2cc(CNc3ccc(C)cc3)c(=O)n(CC(=O)Nc3ccc(C)cc3Cl)c2c1`, the activation was inactive: -39.6%.
With `Cc1ccc(-c2cn3nc(N4CCCC(C(=O)NCc5ccc(F)cc5)C4)sc3n2)cc1` (centres undefined) the activation was inactive: -16.2%.
`CC(C)(C)c1ccc(C(=O)N2CCCC(c3nc4c(nnn4Cc4cccc(F)c4)c(=O)[nH]3)C2)cc1` (centres undefined) was tested, and the activation was inactive: -2.29%.
`COc1ccc(N2CCN(Cc3nc4c(c(=O)n(C)c(=O)n4C)n3C(C)C)CC2)cc1` was tested, and the activation was inactive: 10.9%.
In the case of `Cc1cc(C)cc(NC(=O)Cn2c(=O)n(-c3ccc(C)c(C)c3)c(=O)c3oc4ccccc4c32)c1`, the activation was inactive: -20.7%.
With `COC(=O)c1ccc(NC(=O)CCn2cnnn2)c(C)c1` the activation was inactive: -4.11%.
For `Cc1ccc2nc(CN3CCN(S(=O)(=O)c4ccc(C(C)C)cc4)CC3)oc2c1`, the activation was inactive: 3.99%.
In the case of `Cc1ccc2oc(-c3cccc(NC(=O)c4cccc5c(Cl)cccc45)c3)nc2c1`, the activation was inactive: 5.51%.
`CCCCn1c(CCCNC(=O)c2cccc(C)c2)nc2ccccc21` was tested, and the activation was inactive: 37%.
In the case of `Cc1nc2cc(-c3cccc(F)c3)nn2c(C)c1CCC(=O)Nc1ccccc1C(N)=O`, the activation was inactive: -1.46%.
In the case of `COc1cc(N)c(Cl)cc1C(=O)NC1CCN(CCCOc2ccc(F)cc2)CC1OC` (centres undefined), the activation was active: 63.8%.
`Cc1cccc(NC(=O)c2ccc(CN3CC(=O)N4CCCCC4C3=O)cc2)c1C` (centres undefined) was tested, and the activation was inactive: -17%.
For `C[C@H](O)C(=O)C1=Nc2c(nc(N)[nH]c2=O)NC1`, the activation was inactive: -13.1%.
`COCCNC(=O)Cn1nc(-c2ccc(C)cc2)c2ccccc2c1=O` was tested, and the activation was inactive: -25.9%.
In the case of `COc1ccc(CNc2nc(-c3ccc(Cl)cc3)cc(C(F)(F)F)n2)cc1`, the activation was inactive: -9.77%.
`COc1cccc(Cn2nnc3c(=O)[nH]c(C4CCCN(C(=O)c5ccccc5Cl)C4)nc32)c1` (centres undefined) was tested, and the activation was inactive: 1.39%.
With `CN(C)CCC(c1ccc(Cl)cc1)c1ccccn1` (centres undefined) the activation was inactive: 9.36%.
With `CCc1ccccc1NC(=O)COCc1cc(-c2ccco2)on1` the activation was inactive: -9.5%.
With `COC(=O)c1c(-c2ccc(Cl)cc2)noc1N1CCN(c2ccccc2OC)CC1` the activation was inactive: -5.15%.
For `COc1ccccc1S(=O)(=O)Cc1ccc(C(=O)N2CCN(c3cc(Cl)ccc3C)CC2)o1`, the activation was inactive: 5.89%.
`Cc1cc(C)c(Cn2c(=O)n(CCC(=O)NCc3ccc4c(c3)OCO4)c(=O)c3ccccc32)c(C)c1` was tested, and the activation was inactive: -6.12%.
For `COc1cc(C2CC(=O)Nc3ccc4ccccc4c32)ccc1OC(=O)C(C)C` (centres undefined), the activation was inactive: -8.04%.
`CCOc1ccc2c(c1)c(=O)c(C(=O)c1ccc(CC)cc1)cn2CC(=O)Nc1cccc(Cl)c1` was tested, and the activation was inactive: 11.4%.
In the case of `O=C(NCCc1ccccc1)c1ccc2nc(CCc3ccccc3)oc2c1`, the activation was inactive: -6.61%.
In the case of `Cc1ccc2occ(CC(=O)N(Cc3ccc(Cl)cc3)Cc3ccco3)c2c1`, the activation was inactive: 7.76%.
In the case of `Cc1ccc(N2C(=O)[C@@H]3CSC(c4ccc(Cl)cc4)N3C2=O)cc1` (some centres undefined), the activation was inactive: -1.09%.
With `CCOc1ccc(OCC)c(NC(=O)C2CCN(S(=O)(=O)c3ccc4c(c3)CC(C)N4C(C)=O)CC2)c1` (centres undefined) the activation was inactive: 3.22%.
In the case of `COC(=O)CSc1nc2sc3c(c2c(=O)n1-c1ccccc1)C(C)CCC3` (centres undefined), the activation was inactive: -2.24%.
`CC(C)Oc1ccc(C(=O)Nc2nnc3n2CCS3)cc1` was tested, and the activation was inactive: -7.8%.
For `COc1cc(C2c3c(-c4cc(C)ccc4O)n[nH]c3C(=O)N2Cc2ccco2)cc(OC)c1OC` (centres undefined), the activation was inactive: -16.5%.
With `CCCc1nn2c(=O)cc(COC(=O)c3cccc(NC(=O)c4ccc(OCC)cc4)c3)nc2s1` the activation was inactive: -15.7%.
For `O=C(Cn1cc(SCc2ccc(Cl)cc2)c2ccccc21)N1CCOCC1`, the activation was inactive: -21.2%.
With `Cc1cc(Cl)ccc1NS(=O)(=O)c1c(C(=O)N2CCCCCC2)c(C)n(C)c1C` the activation was inactive: -15.1%.
With `COc1ccc(NC(=O)CSc2nc3ccccc3n2CC(=O)N(C)C2CCCCC2)cc1` the activation was inactive: 0.889%.
In the case of `COc1ccc(NC(=O)c2cc(S(=O)(=O)N3CCCC(C)C3)cn2C)c(OC)c1` (centres undefined), the activation was inactive: -1.83%.
For `O=c1n(Cc2ccccc2)nc2n1-c1cc(Cl)ccc1OC2`, the activation was inactive: -8.88%.
In the case of `Cc1c2cnn(-c3ccccc3)c(=O)c2c(C)n1CCCC(=O)Nc1cccc(F)c1`, the activation was inactive: 6.48%.
For `Cc1c(Cl)cccc1NC(=O)CSc1nc(=O)[nH]c2c1CCC2`, the activation was inactive: -5.78%.
In the case of `O=S(=O)(c1cccc(Cl)c1)n1c(/C=C/c2ccccc2Cl)nc2ccccc21`, the activation was inactive: 13.1%.
With `Cc1ccc(C)c(Cn2c3ccccc3c3cnn(CC(=O)NC4CCCCCC4)c(=O)c32)c1` the activation was inactive: 17.4%.
For `Cc1ccc(-c2c3c(=O)n(C)c(=O)n(C)c3c3c(-c4cccc(C)c4)nc4ccccc4n23)cc1`, the activation was inactive: 4.68%.
In the case of `Cc1cc(C)c(S(=O)(=O)NCC2CCC(C(=O)NCCc3ccccc3)CC2)c(C)c1` (centres undefined), the activation was inactive: -15.4%.
In the case of `COC(=O)c1ccccc1NC(=O)c1ccc2c(c1)CCN2S(=O)(=O)c1ccc(Cl)cc1`, the activation was inactive: -0.328%.
With `COc1ccc(CN(Cc2ccco2)C(=O)COc2ccccc2Cl)cc1` the activation was inactive: -7.91%.
For `COc1ccc(-c2cc(OC(=O)c3cccc(Cl)c3)c3c(C)oc(C)c3c(=O)c2)cc1OC`, the activation was inactive: -13.3%.
With `N#Cc1nc(/C=C/c2ccc(F)cc2)oc1N1CCCCCC1` the activation was inactive: 8.48%.
For `COC1=CC(=O)C[C@@H](C)[C@]12Oc1c(Cl)c(OC)cc(OC)c1C2=O`, the activation was inactive: -0.864%.
In the case of `CC(NS(=O)(=O)c1ccc2c(c1)CCN2C(=O)CCCC(=O)O)c1ccccc1` (centres undefined), the activation was inactive: 0.126%.
For `Cc1ccccc1NC(=O)CSc1nc(-c2cccs2)nc2cc(=O)[nH]n12`, the activation was inactive: 6.21%.
With `COc1ccc(-n2nc(C(=O)Nc3cc(C)c(Cl)cc3OC)c3c4ccccc4n(C)c3c2=O)cc1` the activation was inactive: -12.5%.
With `CCc1c(C)sc(NC(=O)c2cc3nc(-c4ccc(OC)cc4)cc(C(F)(F)F)n3n2)c1C(=O)OC` the activation was inactive: -0.237%.
`CCN(CC)c1ccc(NC(=O)Cn2nc3c(cc2=O)CCCC3)c(C)c1` was tested, and the activation was inactive: -21.2%.
With `COc1cc(OC)cc(C(=O)N2CCN(C(=O)COc3ccc(C)cc3)CC2)c1` the activation was inactive: -6.08%.
With `COc1cccc(-n2c(SCC(=O)Nc3ccc4c(c3)OCO4)nc3c([nH]c4ccccc43)c2=O)c1` the activation was inactive: -4.15%.
`CCCNC(=O)c1ccc(Cn2c(SCC(N)=O)nc3ccccc3c2=O)cc1` was tested, and the activation was inactive: -5.5%.
`COc1ccc(OC)c(NC(=O)c2cc3cccc(OC)c3oc2=O)c1` was tested, and the activation was inactive: 24.7%.
`COc1cccc(CNC(=O)Cn2ncn3c(cc4ccccc43)c2=O)c1` was tested, and the activation was inactive: -1.19%.
For `Cc1nn(-c2ccccc2)c(OC(=O)c2ccc(Cl)cc2)c1S(=O)(=O)c1ccccc1`, the activation was inactive: 29%.
With `CCOc1ccccc1C(=O)N1CCc2cc(OC)c(OC)cc2C1COc1ccc(OC)cc1` (centres undefined) the activation was inactive: -4.45%.
In the case of `Cc1ccc(-c2nc3cccc(C)n3c2Nc2ccc3c(c2)OCO3)o1`, the activation was inactive: -20.5%.
With `CCC(=O)Oc1c(Sc2ccc(C)cc2)c(C)nn1-c1ccccc1` the activation was inactive: -1.69%.
With `COc1ccc(CNS(=O)(=O)c2cc3c(cc2Cl)NC(=O)CO3)cc1` the activation was inactive: -0.859%.
For `CC(C)CC(=O)Nc1ccc2nc(SCC(=O)N3CCOCC3)sc2c1`, the activation was inactive: 0.677%.
`O=C(CSc1nc(=O)n(CCN2CCOCC2)c2c1CCC2)Nc1ccc(F)cc1F` was tested, and the activation was inactive: -13.1%.
For `COCCCn1c(SCC(=O)Nc2ccc(OC)cc2)nc2c(sc3ccccc32)c1=O`, the activation was inactive: -7.11%.
For `CC(C)(C)c1cc(/C=C(\C#N)C(N)=S)cc(C(C)(C)C)c1O`, the activation was inactive: -33%.
In the case of `O=C(c1cc(-c2ccc(Br)cc2)n[nH]1)N1CCN(S(=O)(=O)c2ccc(Cl)s2)CC1`, the activation was inactive: 9.74%.
With `CCOC(=O)c1cc(-c2ccc(F)cc2)n(CCC(=O)Nc2cc(OC)cc(OC)c2)c1C` the activation was inactive: -26.2%.
For `Cn1c(=O)c2c(nc(N3CCOCC3)n2Cc2ccccc2F)n(C)c1=O`, the activation was inactive: 9.07%.
For `O=C(CSc1nc2ncccc2o1)Nc1ccc(Cl)cc1F`, the activation was inactive: -28.3%.
For `O=C(Nc1ccccc1C(F)(F)F)C1CCN(S(=O)(=O)c2ccccc2)CC1`, the activation was inactive: 40.7%.
In the case of `Cc1ccccc1-c1noc(-c2ccc(NCc3cccnc3)c([N+](=O)[O-])c2)n1`, the activation was inactive: 15.5%.
`O=C(NC1CCCCC1)c1ccc(CSc2nc3cccnc3n2Cc2ccccc2)cc1` was tested, and the activation was inactive: 43.8%.
In the case of `CC1=C(c2ccc(C(C)C)cc2)S(=O)(=O)N=C1N1CCC(C(=O)NCc2ccc(C)o2)CC1`, the activation was inactive: 21.7%.
With `CC(=O)Nc1cccc(NC(=O)CSc2nccn2Cc2ccccc2)c1` the activation was inactive: 21.9%.
For `O=C(COc1ccccc1-c1nc(-c2ccccc2)no1)Nc1ccc([N+](=O)[O-])cc1`, the activation was inactive: 4.58%.
